Laboratory results from patent US8722849B2, “Polypeptides” (Novo Nordisk A/S, priority 2011, dated 2014).
pEC50: −log10 of the molar value. Read-outs that look alike come from different tables or passages of the source. Not every detail of the peptide structures is certain; ends, links or a residue may be inferred. For some assays here: The name of at least one read-out is uncertain. Starred links: 1 amine or outer side, 2 acyl side, 3 side chain; linkers in the order of their positions; H or OH if unused. Positions of bridges follow the written chain, without caps; N, C: chain ends. Non-standard residues stand in square brackets, D forms with d. Residues, ends and D or L forms follow the SMILES beside them. Groups on a side chain read outwards from the residue. *: point of attachment. C20 diacid = O=C(O)CCCCCCCCCCCCCCCCCCC(=O)*; γGlu = O=C(O)[C@H](CCC(=O)[*:2])N[*:1]; AEEA = NCCOCCOCC(=O)O

Columns and labels:
[1] = Assay (III) ThT fibrillation assay for physical stability; format: physicochemical
In short: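 Freshly prepared formulations, pH-adjusted, with 1 μM ThT; four or eight replicates incubated at 37 °C under 960 rpm orbital shaking. Fluorescence (ex 444/em 485 nm) read every 20 min; […]. Peptide concentration measured by RP-HPLC before and after the run.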

food intake = experiment: Assay (I) efficacy testing on appetite (food intake), ad libitum fed rat model; format: in vivo, Sprague Dawley (SD) rats
Description: In the following examples reference is made to the following Assays: • Assay (I)— Experimental protocol for efficacy testing on appetite using an ad libitum fed rat model • ASSAY (II)a—Functional assay—Human calcitonin and amylin receptor assay • ASSAY (II)b—Functional assay—Rat calcitonin and rat amylin receptor assays • ASSAY (III)—ThT fibrillation assays for the assessment of physical stability of protein formulations • ASSAY (IV)—Determination of solubility • ASSAY (V)—Determination of binding to the human amylin receptor • ASSAY (VI)—Determination of the binding to the rat amylin receptor • ASSAY (VII)—Determination of binding to the human calcitonin receptor • ASSAY (VIII)—Determination of binding to the rat calcitonin receptor • ASSAY (IX)—pK—Determination of T % in mini-pig • ASSAY (X)—pK—Determination of T % in rat ASSAY (I)—Experimental Protocol for Efficacy Testing on Appetite Using an Ad Libitum Fed Rat Model
Sprague Dawley (SD) rats from Taconic Europe, Denmark are used for the experiments. The rats have a body weight 200-250 g at the start of experiment. The rats arrive at least 10-14 days before start of experiment to allow acclimatization to experimental settings. During this period the animals are handled at least 2 times. After arrival rats are housed individually for one week in a reversed light/dark phase (meaning that lights are off during daytime and on during nighttime) […]. Since rats are normally active and eat their major part of their daily food intake during the dark period, rats are dosed in the morning right before lights are turned off. This set-up results in the lowest data variation and highest test sensitivity. The experiment is conducted in the rats' home cages and rats have free access to food and water throughout the acclimatization period and the experiment period. Each dose of derivative is tested in a group of 5-8 rats. A vehicle group of 6-8 rats is included in each set of testing. Rats are dosed once according to body weight with a 0.01-3 mg/kg solution administered intraperitoneally (ip), orally (po) or subcutaneously (sc). The time of dosing is recorded for each group. After dosing, the rats are returned to their home cages, where they then have access to food and water. The food consumption is recorded individually continuously by on-line registration or manually every hour for 7 hours, and then after 24 h and sometimes 48 h. At the end of the experimental session, the animals are euthanised.
The individual data are recorded in Microsoft excel sheets. Outliers are excluded after applying the Grubbs statistical evaluation test for outliers, and the result is presented graphically using the GraphPad Prism program.

[2] = target: T1, human amylin receptor (amylin 3(a) receptor: human calcitonin receptor + RAMP-3) (Homo sapiens, UniProt O60896+P30988); experiment: Assay (II)a functional CRE-luciferase assay, human amylin receptor; format: cell-based
T1 construct: expressed in transfected cells; host or cells: BHK570
T1 sequence (P30988 25-474): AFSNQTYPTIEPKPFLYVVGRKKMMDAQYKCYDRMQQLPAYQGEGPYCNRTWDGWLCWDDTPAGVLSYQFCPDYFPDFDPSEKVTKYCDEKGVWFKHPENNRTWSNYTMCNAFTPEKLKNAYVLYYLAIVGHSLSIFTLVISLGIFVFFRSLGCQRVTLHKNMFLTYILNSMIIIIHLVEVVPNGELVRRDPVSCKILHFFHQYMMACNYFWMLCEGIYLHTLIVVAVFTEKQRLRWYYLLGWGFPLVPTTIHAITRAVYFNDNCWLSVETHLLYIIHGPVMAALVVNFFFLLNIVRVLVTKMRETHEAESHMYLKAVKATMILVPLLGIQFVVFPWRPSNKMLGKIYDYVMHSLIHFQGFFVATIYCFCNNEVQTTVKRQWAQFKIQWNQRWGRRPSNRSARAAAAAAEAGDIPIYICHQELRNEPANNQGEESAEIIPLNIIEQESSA
T1 sequence (O60896 24-148 partner): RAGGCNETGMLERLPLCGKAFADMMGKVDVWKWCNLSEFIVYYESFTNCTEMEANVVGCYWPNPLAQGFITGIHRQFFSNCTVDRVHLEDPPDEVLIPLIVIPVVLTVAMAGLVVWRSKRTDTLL

[3] = target: T2, human calcitonin receptor (Homo sapiens, UniProt P30988); experiment: Assay (II)a functional CRE-luciferase assay, human calcitonin receptor; format: cell-based
T2 construct: expressed in transfected cells; host or cells: BHK570
T2 sequence (P30988 25-474): T1 sequence (P30988 25-474)

## CC[C@H](C)[C@H](NC(=O)[C@@H]1CCCN1C(=O)CNC(=O)[C@H](Cc1ccccc1)NC(=O)[C@H](CC(N)=O)NC(=O)[C@H](CC(N)=O)NC(=O)[C@H](CO)NC(=O)[C@H](CO)NC(=O)[C@H](CCCNC(=N)N)NC(=O)[C@H](Cc1c[nH]cn1)NC(=O)[C@H](CC(C)C)NC(=O)[C@H](Cc1ccccc1)NC(=O)[C@H](CCC(=O)O)NC(=O)[C@H](C)NC(=O)[C@H](CC(C)C)NC(=O)[C@H](CCCNC(=N)N)NC(=O)[C@H](CCC(N)=O)NC(=O)[C@@H](NC(=O)[C@H](C)NC(=O)[C@@H]1CSSC[C@H](NC(=O)[C@H](CCCCN)NC(=O)[C@@H](CCCNC(=N)N)NC(=O)[C@@H](CCCNC(=N)N)NC(=O)COCCOCCNC(=O)COCCOCCNC(=O)CC[C@H](NC(=O)CCCCCCCCCCCCCCCCCCC(=O)O)C(=O)O)C(=O)N[C@@H](CC(N)=O)C(=O)N[C@@H]([C@@H](C)O)C(=O)N[C@@H](C)C(=O)N[C@@H]([C@@H](C)O)C(=O)N1)[C@@H](C)O)C(=O)N[C@@H](CC(C)C)C(=O)N1CCC[C@H]1C(=O)N1CCC[C@H]1C(=O)N[C@H](C(=O)N[C@@H](CC(N)=O)C(=O)N[C@H](C(=O)NCC(=O)N[C@@H](CO)C(=O)N[C@@H](CC(N)=O)C(=O)N[C@H](C(=O)N[C@@H](Cc1ccc(O)cc1)C(N)=O)[C@@H](C)O)C(C)C)[C@@H](C)O [Example 37, N-alpha-[2-(2-{2-[2-(2-{2-[(S)-4-Carboxy-4-(19-carboxyheptadecanoylamino)butyrylamino]ethoxy}ethoxy)acetylamino]ethoxy}ethoxy)acetyl]-D-Arg-D-Arg-[Glu14,His17,Arg18]-pramlintide] ({C20 diacid-γGlu-AEEA-AEEA}-[dR][dR]KCNTATCATQRLAEFLHRSSNNFGPILPPTNVGSNTY-NH2; disulfide 4-9)
[1]; Table 8
  ThT pH 4.0 lag time: >45 h
[1]; ThT fibrillation assay
  ThT pH 4.0 lag time: >45 h
  ThT pH 4.0 lag time (h): >45 h
  ThT pH 4.0 recovery: 87%
  ThT pH 4.0 recovery (%): 87%
Food intake
  Food intake reduction 0-24 h 3 nmol/kg (%): 24%
  Food intake reduction 24-48 h 3 nmol/kg (%): 0%

## CC[C@H](C)[C@H](NC(=O)[C@@H]1CCCN1C(=O)CNC(=O)[C@H](Cc1ccccc1)NC(=O)[C@H](CC(N)=O)NC(=O)[C@H](CCCCNC(=O)COCCOCCNC(=O)COCCOCCNC(=O)CC[C@H](NC(=O)CCCCCCCCCCCCCCCCCCC(=O)O)C(=O)O)NC(=O)[C@H](CO)NC(=O)[C@H](CO)NC(=O)[C@H](CCCNC(=N)N)NC(=O)[C@H](Cc1c[nH]cn1)NC(=O)[C@H](CC(C)C)NC(=O)[C@H](Cc1ccccc1)NC(=O)[C@H](CCC(=O)O)NC(=O)[C@H](C)NC(=O)[C@H](CC(C)C)NC(=O)[C@H](CCCNC(=N)N)NC(=O)[C@H](CCC(N)=O)NC(=O)[C@@H](NC(=O)[C@H](C)NC(=O)[C@@H]1CSSC[C@H](NC(=O)[C@@H](N)CCCNC(=N)N)C(=O)N[C@@H](CC(N)=O)C(=O)N[C@@H]([C@@H](C)O)C(=O)N[C@@H](C)C(=O)N[C@@H]([C@@H](C)O)C(=O)N1)[C@@H](C)O)C(=O)N[C@@H](CC(C)C)C(=O)N1CCC[C@H]1C(=O)N1CCC[C@H]1C(=O)N[C@H](C(=O)N[C@@H](CC(N)=O)C(=O)N[C@H](C(=O)NCC(=O)N[C@@H](CO)C(=O)N[C@@H](CC(N)=O)C(=O)N[C@H](C(=O)N[C@@H](Cc1ccc(O)cc1)C(N)=O)[C@@H](C)O)C(C)C)[C@@H](C)O [Example 14, N-epsilon21-[2-(2-{2-[2-(2-{2-[(S)-4-Carboxy-4-(19-carboxyheptadecanoylamino)butyrylamino]ethoxy}ethoxy)acetylamino]ethoxy}ethoxy)acetyl]-[Arg1,Glu14,His17,Arg18,Lys21]-pramlintide] (H-RCNTATCATQRLAEFLHRSSK([AEEA-AEEA-γGlu-C20 diacid])NFGPILPPTNVGSNTY-NH2; disulfide 2-7)
[2]; Table 2, BHK amylin 3(a)-receptor/CRE-luc cells
  pEC50: 10.00
[2]; Table 6, human amylin receptor
  pEC50: 10.00
[2]; Table 7, human amylin receptor
  pEC50: 10.00
[2]; Table 11
  pEC50: 10.00
[3]; Table 7, human calcitonin (CTa) receptor
  pEC50: 9.33
[3]; Table 11, read-out: CTa receptor human EC50
  pEC50: 9.33
Food intake
  Food intake reduction 0-24 h 3 nmol/kg (%): 27%
  Food intake reduction 24-48 h 3 nmol/kg (%): 8%

## CC[C@H](C)[C@H](NC(=O)[C@@H]1CCCN1C(=O)CNC(=O)[C@H](Cc1ccccc1)NC(=O)[C@H](CC(N)=O)NC(=O)[C@H](C)NC(=O)[C@H](CO)NC(=O)[C@H](CO)NC(=O)[C@H](CCCNC(=N)N)NC(=O)[C@H](Cc1c[nH]cn1)NC(=O)[C@H](CC(C)C)NC(=O)[C@H](Cc1ccccc1)NC(=O)[C@H](CCC(=O)O)NC(=O)[C@H](C)NC(=O)[C@H](CC(C)C)NC(=O)[C@H](CCCNC(=N)N)NC(=O)[C@H](CCC(N)=O)NC(=O)[C@@H](NC(=O)[C@H](C)NC(=O)[C@@H]1CSSC[C@H](NC(=O)[C@H](CCCCN)NC(=O)[C@@H](CCCNC(=N)N)NC(=O)[C@@H](CCCNC(=N)N)NC(=O)COCCOCCNC(=O)COCCOCCNC(=O)CC[C@H](NC(=O)CCCCCCCCCCCCCCCCCCC(=O)O)C(=O)O)C(=O)N[C@@H](CC(N)=O)C(=O)N[C@@H]([C@@H](C)O)C(=O)N[C@@H](C)C(=O)N[C@@H]([C@@H](C)O)C(=O)N1)[C@@H](C)O)C(=O)N[C@@H](CC(C)C)C(=O)N1CCC[C@H]1C(=O)N1CCC[C@H]1C(=O)N[C@H](C(=O)N[C@@H](CC(N)=O)C(=O)N[C@H](C(=O)NCC(=O)N[C@@H](CO)C(=O)N[C@@H](CO)C(=O)N[C@H](C(=O)N[C@@H](Cc1ccc(O)cc1)C(N)=O)[C@@H](C)O)C(C)C)[C@@H](C)O [Example 38, N-alpha-[2-(2-{2-[2-(2-{2-[(S)-4-Carboxy-4-(19-carboxyheptadecanoylamino)butyrylamino]ethoxy}ethoxy)acetylamino]ethoxy}ethoxy)acetyl]-D-Arg-D-Arg-[Glu14,His17,Arg18,Ala21,Ser35]-pramlintide] ({C20 diacid-γGlu-AEEA-AEEA}-[dR][dR]KCNTATCATQRLAEFLHRSSANFGPILPPTNVGSSTY-NH2; disulfide 4-9)
[1]; Table 8
  ThT pH 4.0 lag time: >45 h
[1]; Table 9
  ThT pH 4.0 lag time: >45 h
[1]; ThT fibrillation assay
  ThT pH 4.0 lag time: >45 h
  ThT pH 4.0 lag time (h): >45 h
  ThT pH 4.0 recovery: 94%
  ThT pH 4.0 recovery (%): 94%
Food intake
  Food intake reduction 0-24 h 3 nmol/kg (%): 16%
  Food intake reduction 24-48 h 3 nmol/kg (%): 0%
